In the RNAGym collection of RNA variant scans (doi:10.7554/elife.90254):
The source gives no read counts; variants with many changes may rest on few reads.

B1: LINE1-mini (parent)
chain: GGCAGAGCUCAACACAGCGUGGCAAAGUGGCUGUGGCUAGACUGCC

Variants of: B1
Assay: self-cleavage, relative activity (ratio to wild type); higher = more cleavage; in vitro, sequencing; the parent is a self-cleaving ribozyme

Variant	self-cleavage
A11C A26C G27C G36C	0
A6C A14C U34C G40A	0.06
C3G A12G C23A G44A C46A	0.6
C8A A16U G30U C42U	0.25
C3G A11U A26G G27U	0.05
G2C A14C U20C	0.01
U9A C15U A16C	0.1
A26U G35U C46G	0.02
C3G G40C C45G	0.03
G5C U38C A39U	0.09
G22C G27U G40A	0.1
U9G C18A C42G	0.02
A4U G27C G33A	0.13
U20A G21A C31G G40U	0.03
C8A G33C A39U	0.11
A6C G19A G29C G30C	0.46
U9C A12U A24U C37U	0
G7A U28A G30A	0.16
A6G G22A G36A	0.56
A6G G17U C23A G36A C46G	0.27
C3U A12G G44U C45A	0
A6G G35A C37U U43G	0.09
C15A C23A C42A	0.07
U9G A16C G17C A24C	0.09

Variant	self-cleavage
U20A U28G C45U	0.11
A6U A11C G29U	0.02
C3G C23A C45U	2.98
G1A C15U G21C A25G G29U	0.56
A6G C10U G29A C31U	0.01
G5U A25G A41U C46G	0.05
G1C A6G U9C U20G C23A G30A	0.02
A26G G36U G40C	0.03
C23G U28C C31U	0.1
G21U A25C G36U	0.03
G1U C10A G22C C23G	0.02
G1C A39G C42A C45U	0.04
U20G A24G A39U	1.38
G7A G27A C37U C42A	0.03
A4C G33U G35U C45A	0.33
U20A C23A G29U	0.34
G5A G33C C37G U38A	0.06
C15U U20C G27U G44U	0.18
G1A C18U C37G	0.06
C3G U9A A39G	0.96
A6G U32C G35U C45G	0.01
C10U G22C C23A	0.18
A6U A11C G27U	0
C3U C10G A26U G27A U34G A39G	0.02

Variant	self-cleavage
G1U U9A A16C G30U A41C	0.03
U9A A14C G17U G36A	0.05
G1U C23A U34A C45G	0.02
C3G A6C G17C G29U	0.53
G21C G33U G40A	0.07
C13G A26U C46A	0.06
C3A A12U A14C U20G	0.07
C13G G30A U34C G35A	0.06
C3A C13A G33C A39G	0.08
G19A A25C A41C	0.04
G1U G2C G33C G36C G40A	0.02
G5C C15G A16G G27U G30C A41G	0.04
A12U C15G U20G G35C G36C A41U	0
C3A C8A C15A G40U	0.59
A11C G27A U38A G44U C46A	0
G2U U9A U34A	0.13
G5C C10A A25U G40U G44U	0.01
G1U C3A C46A	0.08
C15U G21C G29A U43G	0.02
G21C U32G G35C C37G A39U	0.1
C3A A4G C10A U32C	0.04
U9C C13G A25G G29U	0.01
A4C C18U C46U	0.04
C3U C8U G19C G29C U34A G44U	0.05

Variant	self-cleavage
C15G A25C C46G	0.05
G7U C8U U32C C45U	0.09
G2U A6G G17A A24U G29U G36A U38A	0.04
A11G A12U G36U	0.04
A11U G30A C31U	0.03
A4G A12C C23A	0.01
G5A A6G G22C A26G G30C U32A U34C	0.02
G19A G21A U34C A41U	0.62
C13A G19A A24U G36C	0.13
G22A C23U G27A	0.26
G36A C37G G40U A41U	0.08
G7U C18G A25C C31U U32C G36U	0.03
A14U C15A G21A G27U	0.2
G2C A12U G17C C31G C37G	0.01
U9C C10U G36U	0.07
A24C A26U C45G	0.07
A14C G36C A39C U43C C46A	0.02
G5U C10U G27C	0.04
C15G G27U A39G	0.06
A4G G5A G30U G33C	0.04
C15A A16U G33U C37A A39C C42A	0
U9G G22U U28C G36C U43G	0
G21A U32C A39G	0.08
A14C C18A U20G C23A A41U	0.18

Variant	self-cleavage
G27A G33U C42U	0.03
G7U C13U G21U A24C U32A A41U	0.12
G2U C3A U9G C15U	0.41
G17U G27U A41C C46U	0.03
G19A C31U U38A G44A	0.1
C13U C15G G44C	0.02
A24C A26C G40U	0.05
C18A U28C G36A C46A	0.05
G2A G19A G27U G33U	0.06
G1A A14G C31G G35C G44A	0.05
G1A A11U C31G	0.02
A6U C13U C15U A39C	0.09
C10U C13U A14C A25C	0.02
G2A U9A A16U C23A G36U C46G	0.19
G7U C10A U20G C42G	0.01
G1C A6C C13G C23U G33U U34G C46G	0.01
G2C A11U C23A U28G	0.02
C15A A16U C23U	0.1
G17A C18G G19A U28G	0.09
A12U A39U C46U	0.27
C3U A14G C31A C42A	0.04
A11U C15U C23A C37U	0.01
C3G A6C A24U G30U C42G	0.05
A14G G44A C45A	0

Variant	self-cleavage
C31U U32G G36A	0
C13G A16U C31A	0
A16U U32C C42A	0.03
G1A C8G G17A U38G G40A U43G	0.15
A12U G22C A41G	0.02
C3U C10A G19U	0.06
G7A U9G A12G C45U	0.01
A26G G27C U28A G33A G40U C42G	0.06
G5A G30A G35A C45A	0.03
C10U A11U G19C G36C C37G	0.01
A6G C23G A25C G33C	0.04
C18G G40C G44U	0.05
A14G U20G G22C A39U	0.02
G5C C8A G36U C45A	0.03
G7A C13U G30A	0.01
G5U U28G U38A G40C	0.01
C3U C37A A39U	0.29
C8A G33U C45A	0.14
C8U G19C G36C	0.06
G29A G36U U38A	0.02
A4C A11U C46U	0.01
A4U G29C C45G	0.03
C23A G40U C42A	0.06
G17C G35C A39G C42A G44U	0

Variant	self-cleavage
G2A C10U G30C	0.08
G5C G21U G40A C42U	0.03
G2A U32A U43C	0.28
G2C G5C U9A A16U C42U	0.01
G5U C8A A41U	0.52
C8A U34G C37A	0.58
C3U G27U C37A	0.01
A16U C18G U43C	0.01
C8G G19U U38C	0.05
A11G A26U G29U G35A	0.02
G29A G35A G36C	0.18
G5C A11G U43G	0.03
C10U U28C U38A	0.03
A4C G22A G30C	0.17
A12U G30C C42U	0.13
U9C A16C C23G	0.01
A6G U9A G44A	0.03
C10U A11G U20C G29C	0.01
G5A G7A C8U A11G A14U G19U U28G A39G G40C	0.02
G17C C37A C42A	0.01
G29U U34G C37U U38C C45A C46G	0.07
C8A A12C C15U	0.05
A11C G19A C37A C42A	0.01
